Data: PubChem BioAssay AID1458 (National Center for Advancing Translational Sciences (NCATS), 2008)
About 5,900 (2.8%) of roughly 210,000 compounds were called active. This list was built around the results that the source calls inconclusive (neither active nor inactive); the mix of calls is not that of the screen. Calls come from the whole dose curve; as a rule, active = well fitted activation curve with a large enough effect; inconclusive = small, poorly fitted or top-dose-only effect; inactive = no such curve, though single readings can be large or run the other way. Potencies beside an inconclusive call are fits to weak or partial responses and may not hold up.

assay: qHTS Assay for Enhancers of SMN2 Splice Variant Expression; conditions: HEK293 SMN2-luciferase splicing reporter, luminescence, 30-36 h; activity change, positive = activation: at 46.1 µM (top of the series); note: nearly all actives have a fitted effect of over 55% in size; for activity change, positive = activation: % of control where 0% means no effect
In short: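 qHTS luciferase splicing reporter: luminescence rises when SMN2 exon 7 is included in transfected HEK293 cells. Compound exposure lasted 30-36 h at 37C, with 4.5 mM final sodium butyrate as control, followed by a ONE-Glo read.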
Potency is the fitted concentration of half-maximal effect; tags give direction and shape of the fitted curve.

Question: Which Potency does the source give for Cc1ccc(NC(=O)N2CCc3ccccc3C2)cc1 here?
Answer: active: 11.2 µM

Question: With CC(=O)N1N=C(c2ccncc2)OC12CCCC2 as the compound, how does the Potency read?
Answer: inconclusive: 2.51 µM [activator, full curve]

Question: With COC(=O)C1=C(C)NC(=O)C1(Nc1nccs1)C(F)(F)F (centres undefined) as the compound, how does the Potency read?
Answer: inconclusive: 0.0032 µM [activator, full curve, poor fit]

Question: Which Potency does the source give for O=C(COc1ccccc1)NCC(=O)N/N=C/c1cc(Br)ccc1OCc1ccccc1 here?
Answer: inconclusive: 0.0316 µM [activator, full curve]

Question: With CC(=O)Nc1ccccc1C(=O)C(=O)Nc1cccc(C(=O)NCc2ccccc2)c1 as the compound, how does the “activity change, positive = activation” value read?
Answer: inactive: -4.56%

Question: For CCOC(=O)C1=C(NC(=S)NC(=O)c2ccccc2)c2ccccc2CC1(C)CC (centres undefined), which Potency is on record?
Answer: inconclusive: 22.4 µM [activator, single point]

Question: With COc1ccc(N2CCN(C(=O)CCc3ccc(S(=O)(=O)NCC(C)C)cc3)CC2)cc1 as the compound, how does the “activity change, positive = activation” value read?
Answer: inactive: -113%

Question: Which “activity change, positive = activation” value does the source give for Cc1ccc(NC(=O)C2CCCN2S(=O)(=O)c2cccc3nsnc23)c(Br)c1 (centres undefined) here?
Answer: inactive: -27.6%

Question: For CCOc1ccc(NC(=S)N2CCCN(Cc3cc(C)ccc3C)C2)cc1, which Potency is on record?
Answer: inconclusive: 5.01 µM [activator, single point]

Question: Which Potency does the source give for C#CCSc1nnc(-c2ccc(OC)cc2)o1 here?
Answer: inconclusive: 10 µM [activator, partial curve, poor fit]

Question: With O=C(Nc1ccc2c(c1)OCCO2)c1ccc(Br)o1 as the compound, how does the Potency read?
Answer: active: 14.1 µM

Question: With Cc1cc(C(=O)Nc2cccc(C(=O)O)c2)c(C)o1 as the compound, how does the Potency read?
Answer: inconclusive: 14.1 µM [activator, partial curve]

Question: For COCCn1c(SCC(=O)N2CC(=O)Nc3ccccc32)nc2ccccc2c1=O, which Potency is on record?
Answer: inconclusive: 31.6 µM [activator, single point]

Question: Which Potency does the source give for CCOC(=O)CSc1nc2cc(OC)ccc2cc1C#N here?
Answer: active: 11.2 µM

Question: With COc1cc(C(=O)Oc2ccccc2/C=N/NC(=O)c2ccc(Cl)cc2Cl)cc(OC)c1OC as the compound, how does the Potency read?
Answer: inconclusive: 2.82 µM [activator, single point]

Question: Which Potency does the source give for O=C(NCCn1ccc2ccccc21)C1CCCCC1 here?
Answer: inconclusive: 14.1 µM [activator, single point]

Question: For COCCNc1oc(-c2ccc(Cl)cc2)nc1C#N, which Potency is on record?
Answer: inconclusive: 12.6 µM [activator, partial curve]

Question: For CCOc1ccc2[nH]c(=O)c(CN(Cc3cccnc3)C(=O)Nc3ccccc3OC)cc2c1, which Potency is on record?
Answer: inconclusive: 35.5 µM [activator, partial curve, poor fit]

Question: With N.N.N.N.N.N.N.N.N.N.N.N.N.N.O.O.[Cl-].[Cl-].[Cl-].[Cl-].[Cl-].[Cl-].[Ru].[Ru].[Ru] as the compound, how does the Potency read?
Answer: inconclusive: 0.708 µM [activator, full curve, poor fit]
